Assay results published in PubChem BioAssay AID1745853 (National Center for Advancing Translational Sciences (NCATS), 2022).
The other results are listed elsewhere or left out. Further columns of the screen follow, without active or inactive calls.

Experiments:
Assay in all cases: Primary Screen for Target Class Profiling of Small Molecule Inhibitors of Methyltransferases
[1] = target: Glycine N-methyltransferase (Homo sapiens) (UniProt Q14749); settings: purified enzyme, MTase-Glo SAH luminescence; measured here: GNMT inhibition; at 40 µM; stronger effect = lower value
Procedure, shortened: (§1)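 Each enzyme was reacted with SAM and its substrate, with compounds tested once at 40 uM; SAH formed was read by MTase-Glo luminescence.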

[2] = target: Guanidinoacetate N-methyltransferase (Homo sapiens) (UniProt Q14353); settings: purified enzyme, MTase-Glo SAH luminescence; measured here: GAMT inhibition; at 40 µM; stronger effect = lower value
Procedure, shortened: as §1

[3] = target: Histamine N-methyltransferase (Homo sapiens) (UniProt P50135); settings: purified enzyme, MTase-Glo SAH luminescence; measured here: HNMT inhibition; at 40 µM; stronger effect = lower value
Procedure, shortened: as §1

[4] = target: Nicotinamide N-methyltransferase (Homo sapiens) (UniProt P40261); settings: purified enzyme, MTase-Glo SAH luminescence; measured here: NNMT inhibition; at 40 µM; stronger effect = lower value
Procedure, shortened: as §1

[5] = target: Phenylethanolamine N-methyltransferase (Homo sapiens) (UniProt P11086); settings: purified enzyme, MTase-Glo SAH luminescence; measured here: PNMT inhibition; at 40 µM; stronger effect = lower value
Procedure, shortened: as §1
% is set by controls: 0 for no effect and ±100 for the full control effect.

Structure (SMILES)	activity change, negative = inhibition [1] [%]	activity change, negative = inhibition [2] [%]	activity change, negative = inhibition [3] [%]	activity change, negative = inhibition [4] [%]	activity change, negative = inhibition [5] [%]
Cc1ccc(-c2c(-c3nn(C)c4ncnc(N5CC[C@H](N6CCCCC6)C5)c34)cnn2C)cc1	0.957	5.82	11.1	-19.4	2.63
c1cnc(-c2noc(-c3nc(-c4ccc5c(c4)OCO5)no3)n2)cn1	-4.64	-9.24	-2.55	-15.2	-18.7
CCC1c2ccc(C)n2CCN1C(=O)Nc1ccccc1Br (stereo not drawn)	5.47	2.07	2.04	-7.95	1.94
CCN1C(=O)Cc2cc(C(=O)Nc3ccc(F)cc3)ccc21	-2.84	-1.86	0.991	-3.62	2.86
C/C=C/C=C/C(CC(=O)O)Nc1ccc(C=O)cc1 (stereo not drawn)	-26.6	-3.6	2.07	-17.8	-8.16
CCCN1C(=O)c2c(C(=O)NCCc3cccc(C)c3)ncn2CC1(C)C(=O)NC1CCCC1 (stereo not drawn)	0.277	0	2.38	5.2	-4.57
c1cncc(CN2CC[C@H](c3nnc(Cc4c[nH]c5ccccc45)o3)C2)c1	-9.52	-2.64	-6.95	-5.76	9.22
O=C(C(Cc1cccc(C(F)(F)F)c1)NS(=O)(=O)c1cc(F)c2c(c1)CCNC2)N1CCCC1 (stereo not drawn)	0.832	-5.72	-5.93	-19.9	-11.5
CCCn1c(=O)c2ccccc2n2c(SCC(=O)Nc3ccc(F)cc3)nnc12	-5.67	5.84	2.62	0.316	0.479
CCN(CC)c1nc2c(-c3ccc(Cl)cc3)nnn2c2ccccc12	-5.21	-2.99	-1.51	0.64	-6.09
CC1CCCCN1CCN1C(=O)c2ccc(-c3ccco3)n2CC1(C)C(=O)NC1CCCC1 (stereo not drawn)	8.19	2.94	7.55	13.6	3.57
NC(=O)[C@@H](Cc1c[nH]c2ccccc12)NC(=O)[C@H]1CN(C(=O)C2CCNCC2)CCN1C(=O)N1CCOCC1	-6.3	-5.7	-1.31	-6.26	-2.12
COc1nc2nc(CC3CC3)n(C)c2cc1-c1ccc(O)c(F)c1	-33.3	-8.65	-9.44	-43.4	-8.54
Cn1c(=O)c2ccc(C(=O)NC3CCCC3)cc2n2c(SCc3ccccc3Cl)nnc12	-2.62	0	6.32	8.29	0.473
COCCNCc1ccc(-c2cc3nccc(Oc4ccc(NC(=S)NC(=O)Cc5ccc(F)cc5)cc4F)c3s2)nc1	-8.98	-3.75	0.462	-19	0.61
C[C@]1(CO)C2CC[C@@H](O)[C@@H](CC(=O)N3CCC[C@H]3CO)[C@]2(C)CC[C@H]1OC(=O)Nc1cccc(F)c1 (stereo partly drawn)	-2.17	-0.993	0.366	-4.98	1.31
CN1C(=O)c2cc(C(=O)NCc3ccccn3)nn2CC1(C)C(=O)NCc1ccc(F)cc1 (stereo not drawn)	5.15	0	7.64	4.64	4.79
COc1ccc(C(=O)N2CCN(c3cc(-c4cccs4)[nH]n3)CC2)cc1OC	-12.5	-8.46	-4.72	-28.4	-6.63
CC(N)C(=O)OC(C)(C)Cc1ccc(Cl)cc1 (stereo not drawn)	5.78	12.8	1.51	-2.04	8.79

Structure (SMILES)	activity change, negative = inhibition [1] [%]	activity change, negative = inhibition [2] [%]	activity change, negative = inhibition [3] [%]	activity change, negative = inhibition [4] [%]	activity change, negative = inhibition [5] [%]
C=Cc1ccc(Cn2nc3n(C(C)C)c(=O)c4ccc(C(=O)NC(C)C)cc4n3c2=O)cc1	1.4	0	6.17	2.35	6.79
COc1ccc(NC(=O)CCc2nnc3n(Cc4ccccc4Cl)c(=O)c4ccccc4n23)cc1	4.88	1.6	3.8	3.23	-0.232
CC(=O)NC(Cc1c[nH]c2ccccc(=O)c12)C(=O)O (stereo not drawn)	1.41	2.86	-21.1	-10.2	-3.25
CCc1cccc(N2C(=O)CSc3c(c4ccccc4n3C)C2C(=O)NCCC(C)C)c1 (stereo not drawn)	9.88	0	1.62	4.22	5.63
COc1ccc(S(=O)(=O)NCCNc2cc(C)nc3ccnn23)cc1	-4.26	-5.5	-0.865	-6.97	-3.56
CC(NC(=O)Cc1cc(F)cc(F)c1)C(=O)NC1C(=O)N(C)c2ccccc2-c2ccccc21 (stereo not drawn)	-8.96	–	-10.3	–	–
CCC(C)NC(=O)c1ccc2c(=O)n(CC(C)C)c3nn(CC(=O)Nc4ccc(C)c(C)c4)c(=O)n3c2c1 (stereo not drawn)	3.17	0	4.82	4.43	3.92
O=C(OCc1cccc(O)c1O[C@@H]1O[C@H](CO)[C@@H](O)[C@H](O)[C@H]1O)C1(O)C(=O)C2C=CC1C1C=CC(=O)C(O)(C(=O)OCc3cccc(O)c3O[C@@H]3O[C@H](CO)[C@@H](O)[C@H](O)[C@H]3O)C21 (stereo partly drawn)	4.91	4.3	9.03	-6.15	5.96
OC[C@H]1O[C@@H](Oc2ccc3c(c2)OC[C@H]2c4cc5c(cc4O[C@@H]32)OCO5)[C@H](O)[C@@H](O)[C@@H]1O	4.83	-0.058	6.08	-7.88	1.36
Cc1ccc(NC(=O)c2cc3n(n2)CC(C)(C(=O)NC2CCCCCC2)N(C)C3=O)cc1C (stereo not drawn)	0.293	4.92	0.625	-0.709	-0.009
Cc1ccc(CCNC(=O)c2ncn3c2C(=O)N(C2CC2)C(C)(C(=O)NCc2ccc(C)cc2)C3)cc1 (stereo not drawn)	2.7	8.65	5.72	0.465	0.943
C[S+](=O)([O-])N1CC2(Cc3ccccc31)CN(C(=O)NC1CCCC1)C2	0.268	-2.88	2.87	-3.85	2.24
COc1ccc(CCN2C(=O)c3cc4occc4n3CC2(C)C(=O)NC2CCCCC2C)cc1OC (stereo not drawn)	0.221	0.263	-0.366	-24.1	-1.89
Cc1cn2c(n1)Cc1ccc(Cl)cc1C(c1ccc(N)cc1)=N2	-4.84	-8.84	-5.94	-44	-7.85
CCCn1c(=O)c2cc(Cl)ccc2n2c(=O)n(Cc3ccc(F)cc3)nc12	6.66	0	12.4	3.81	5.65
CCC(C)NC(=O)N1CC(c2nc(CCOCC3CCOCC3)no2)C1 (stereo not drawn)	-4.77	-8.49	-3.34	-16.8	-15.2
C=C1C(=O)O[C@@H]2[C@H]3O[C@]3(C)CCC=C(C)CC[C@@H]12	-12.9	6.14	1.21	-5.06	4.13
CN(C)C[C@H]1C[C@@H](CO)CN(C(=O)c2csc(Cc3ccccc3)n2)C1	-6.31	-7.46	-5.46	-9.04	-5.17
COc1ccc(OC)c(CCNC(=O)CCc2nnc3n(CCCOC(C)C)c(=O)c4ccccc4n23)c1	-5.74	0.717	-5.77	3.48	2.96

Structure (SMILES)	activity change, negative = inhibition [1] [%]	activity change, negative = inhibition [2] [%]	activity change, negative = inhibition [3] [%]	activity change, negative = inhibition [4] [%]	activity change, negative = inhibition [5] [%]
COc1cccc(CC(=O)NCc2ccc(Cl)s2)c1	-2.9	-4.43	-1.04	-10.5	-4.94
COc1ccc(Br)cc1[C@@H]1Nc2ccc(Cl)cc2[C@@H]2C=CC[C@@H]21	-8.41	0	-10.3	-2.14	-6.22
O=c1c2ccccc2n2c(-c3cc(Cl)ccc3O)nnc2n1Cc1ccccc1	-7.93	2.23	-2.14	-4.1	-14.9
CN(Cc1cccc(N2CCN(Cc3c(Cl)ccc(Cl)c3Cl)CC2)c1)[S+](C)(=O)[O-]	-3.95	-0.767	3.27	-0.784	-4.91
Cn1c(=O)n(C)c2cc(S(=O)(=O)N(Cc3ccccc3)C(=O)c3ccncc3)ccc21	4.78	0.148	10.1	7.81	3.64
CCNc1nccc(N2CCC(CC(=O)N3CCN(c4ccccc4F)CC3)CC2)n1	-7.41	-0.469	-65.8	-19.2	-7.07
CCCN1C(=O)c2cc(C(=O)NCCc3ccc(SC)cc3)nn2CC1(C)C(=O)NC1CCCC1 (stereo not drawn)	2.81	0	-28	1.28	3.48
CCC(C)n1ncn(-c2ccc(N3CCN(c4ccc(OCC5COC(Cn6cncn6)(c6ccc(Cl)cc6Cl)O5)cc4)CC3)cc2)c1=O (stereo not drawn)	–	-9.15	–	-18.1	-5.91
C[C@@H]1O[C@@H](O[C@H]2[C@H](OC(=O)[C@]34CCC(C)(C)C[C@H]3C3=CCC5[C@@]6(C)C[C@@H](O)[C@@H](O[C@@H]7O[C@H](CO)[C@@H](O)[C@H](O)[C@H]7O)[C@@](C)(CO)C6[C@H](O)C[C@@]5(C)[C@]3(C)CC4)OC[C@H](O)[C@@H]2O)[C@H](O)[C@H](O[C@@H]2OC[C@](O)(CO)[C@H]2O)[C@H]1O[C@@H]1OC[C@@H](O)[C@H](O[C@H]2O[C@H](C)[C@@H](O)[C@H](O)[C@@H]2O)[C@H]1O (stereo partly drawn)	3.13	2.26	10.5	-8.9	10.2
CCNC(=O)CN1CCC(=O)N(Cc2ccc(F)cc2)C(C(C)C)C1 (stereo not drawn)	-2.58	-1.93	-0.732	-10	8.64
CCCCN1C(=O)c2cc(C(=O)NCCCc3ccccc3)nn2CC1(C)C(=O)NC1CCCC1 (stereo not drawn)	2.9	0	-0.826	3.69	3.63
CCc1cc2c(cc3n2CC(C)(C(=O)NC2CCC(C)CC2)N(Cc2ccco2)C3=O)s1 (stereo not drawn)	-0.414	8.15	1.82	-9.66	-1.61
O=C(c1cccn2cncc12)N1CCOCC1	-3.37	2.86	0.856	0.92	-2
CCCn1c(=O)c2ccc(C(=O)NC(C)C)cc2n2c(=O)n(Cc3ccc(C)cc3)nc12	7.1	1.62	10.8	0.225	8.37
CCC1Oc2ccc(Cl)cc2N(CC(=O)Nc2ccc3c(c2)C(=O)N(C)C2=NCCN23)C1=O (stereo not drawn)	-7.49	-3.43	-6.68	-5.12	-4.63
CCOC(=O)c1cc2n(n1)CC(C)(C(=O)NCc1ccccc1)N(c1ccc(C)c(Cl)c1)C2=O (stereo not drawn)	0.51	4.5	0.504	-2.33	-0.196
CN(C)CCNC(=O)c1cccn2c(=O)c3cc4ccccc4cc3nc12	–	-0.836	–	-5.58	-66.9
O=C(Nc1nn(Cc2ccccc2)c2cccc(N3CCOCC3)c12)C1CCC1	-3.65	0.069	-0.101	-6.22	-3.6
